According to patent US20220340629A1, “Myosin Derived Peptides and Related Compounds with Anticoagulant Activities” (THE SCRIPPS RESEARCH INSTITUTE, priority 0001, published 2022):
pIC50: −log10 of the molar value. For part of these data: Not every detail of the peptide structures is certain; ends, links or a residue may be inferred. For part of these data: At least one structure is not confirmed: it was looked up by name or label, or the drawing left a doubt. Starred links: 1 amine or outer side, 2 acyl side, 3 side chain; linkers in the order of their positions; H or OH if unused. Positions of bridges follow the written chain, without caps; N, C: chain ends. Residues, ends and D or L forms follow the SMILES beside them. Suc = O=C(CCC(=O)[*:2])[*:1]

What was measured:
[1] = molecular target: skeletal muscle myosin-supported prothrombin activation by factors Xa and Va (Homo sapiens, UniProt P00742); assay: Assay 1A: prothrombin activation by factor Xa/factor Va/myosin in purified system; type: biochemical, human factors Xa and Va; rabbit skeletal muscle myosin; conditions: factor Va 5 nM, factor Xa 0.2 nM, prothrombin 0.75 μM, 10 min
[2] = system: thrombin generation in human platelet poor plasma with skeletal muscle myosin; assay: Assay 2A: thrombin generation, recalcification of human platelet poor plasma + myosin; type: biochemical; conditions: human platelet poor plasma 30%, myosin 50 nM, CaCl2 10 mmol/L
Experimental: Activities of the various peptides and derivative compounds were also examined via assays using recalcification of human plasma. [One of] these assay format (2A) involves monitoring thrombin generation in platelet poor plasma (PPP). Specifically, pooled normal human platelet poor plasma (PPP) (obtained from George King Bio Medical Inc., Overland Park, Kans.) (30%) was incubated with skeletal muscle myosin at 50 nM in the presence of peptide in DMSO or DMSO alone for 5 min at 37° C. Then, fluorogenic thrombin substrate solution (Z-Gly-Gly-Arg-AMC) (I-1140) with CaCl2 (10 mmol/L final) alone was added to the reaction mixture (total 110 μl) to initiate coagulation. Thrombin generation was followed continuously for 25 min using SPECTRAmax GEMINI XS fluorometer (Molecular Devices, Sunnyvale, Calif.) with excitation and emission wavelengths set at 360 and 460 nm, respectively. The first derivative of fluorescence versus time was used to produce thrombin generation curves with the correction for substrate consumption and inner filter effect. For this assay 96 well plate (total 110 μL) or 384 well plates (total 30 μL) were used.
Activities obtained from Assay 2A (recalcification of human plasma in the presence of myosin) were used to rank the various peptides listed in Table 3. As noted above, this assay monitors recalcification of plasma to stimulate thrombin generation. […]

skeletal muscle myosin-supported prothrombin activation by factors Xa and Va, sequence (P00742 41-179): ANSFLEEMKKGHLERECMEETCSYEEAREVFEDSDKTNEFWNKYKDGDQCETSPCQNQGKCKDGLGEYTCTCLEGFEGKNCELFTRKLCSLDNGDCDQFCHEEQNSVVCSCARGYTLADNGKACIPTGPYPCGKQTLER
skeletal muscle myosin-supported prothrombin activation by factors Xa and Va, sequence (P00742 235-488): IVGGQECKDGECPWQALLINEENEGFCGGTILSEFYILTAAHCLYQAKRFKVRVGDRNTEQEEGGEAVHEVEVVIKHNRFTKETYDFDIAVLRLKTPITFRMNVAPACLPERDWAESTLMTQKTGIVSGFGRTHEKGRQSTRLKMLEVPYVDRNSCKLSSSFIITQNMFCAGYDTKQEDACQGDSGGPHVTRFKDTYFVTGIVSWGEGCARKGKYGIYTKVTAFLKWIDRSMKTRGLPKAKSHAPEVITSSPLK
skeletal muscle myosin-supported prothrombin activation by factors Xa and Va, sequence (P12259 29-737 partner): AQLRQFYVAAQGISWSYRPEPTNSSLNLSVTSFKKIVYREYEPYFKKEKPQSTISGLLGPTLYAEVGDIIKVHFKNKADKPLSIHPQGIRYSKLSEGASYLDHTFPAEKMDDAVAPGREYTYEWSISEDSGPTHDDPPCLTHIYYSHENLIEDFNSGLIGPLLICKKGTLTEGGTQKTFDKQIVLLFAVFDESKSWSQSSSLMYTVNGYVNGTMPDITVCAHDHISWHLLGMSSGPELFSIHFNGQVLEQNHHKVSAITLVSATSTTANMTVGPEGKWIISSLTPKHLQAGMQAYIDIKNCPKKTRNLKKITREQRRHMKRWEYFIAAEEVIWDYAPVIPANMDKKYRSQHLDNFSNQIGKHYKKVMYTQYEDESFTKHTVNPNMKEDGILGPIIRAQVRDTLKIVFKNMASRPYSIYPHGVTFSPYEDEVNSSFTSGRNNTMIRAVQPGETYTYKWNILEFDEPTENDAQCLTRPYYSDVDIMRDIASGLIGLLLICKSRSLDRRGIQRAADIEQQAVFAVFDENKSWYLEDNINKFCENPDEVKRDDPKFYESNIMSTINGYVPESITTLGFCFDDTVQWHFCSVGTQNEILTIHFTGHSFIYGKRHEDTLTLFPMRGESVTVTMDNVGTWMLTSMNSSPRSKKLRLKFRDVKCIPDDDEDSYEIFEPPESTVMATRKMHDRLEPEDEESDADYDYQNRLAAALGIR
skeletal muscle myosin-supported prothrombin activation by factors Xa and Va, sequence (P12259 1574-2224 partner): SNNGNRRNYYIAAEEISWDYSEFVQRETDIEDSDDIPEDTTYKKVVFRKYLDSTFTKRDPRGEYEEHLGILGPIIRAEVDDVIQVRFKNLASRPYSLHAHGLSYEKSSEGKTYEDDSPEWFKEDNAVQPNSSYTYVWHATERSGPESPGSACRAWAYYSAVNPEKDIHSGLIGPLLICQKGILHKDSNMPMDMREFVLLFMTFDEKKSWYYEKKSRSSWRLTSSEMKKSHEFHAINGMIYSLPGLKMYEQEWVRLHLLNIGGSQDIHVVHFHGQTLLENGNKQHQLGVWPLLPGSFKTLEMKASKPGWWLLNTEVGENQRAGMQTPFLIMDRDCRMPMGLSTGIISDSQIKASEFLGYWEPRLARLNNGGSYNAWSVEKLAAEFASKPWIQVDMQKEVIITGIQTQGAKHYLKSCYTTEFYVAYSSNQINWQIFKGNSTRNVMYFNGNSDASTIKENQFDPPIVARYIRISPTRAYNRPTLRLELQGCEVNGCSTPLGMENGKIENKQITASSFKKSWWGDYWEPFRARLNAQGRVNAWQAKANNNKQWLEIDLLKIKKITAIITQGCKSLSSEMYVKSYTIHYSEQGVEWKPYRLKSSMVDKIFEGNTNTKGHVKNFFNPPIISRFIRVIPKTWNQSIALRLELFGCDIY

Row | Compound | pIC50 [1] | pIC50 [2]
1 | CC[C@H](C)[C@H](NC(=O)[C@H](C)NC(=O)[C@H](CCC(=O)O)NC(=O)[C@H](CCCNC(=N)N)NC(=O)[C@H](CCCNC(=N)N)NC(=O)[C@H](CCC(=O)O)NC(=O)[C@@H](NC(=O)[C@H](CCSC)NC(=O)[C@H](CCCNC(=N)N)NC(=O)[C@H](CCC(N)=O)NC(=O)[C@H](Cc1ccc(O)cc1)NC(=O)[C@H](CCC(=O)O)NC(=O)[C@@H](NC(=O)[C@H](CCCNC(=N)N)NC(=O)[C@H](C)NC(=O)[C@H](CC(C)C)NC(=O)[C@H](Cc1ccccc1)NC(=O)CNC(=O)[C@H](CCCNC(=N)N)NC(=O)[C@H](CS)NC(=O)[C@H](CCCNC(=N)N)NC(=O)[C@H](C)N)C(C)C)C(C)C)C(=O)N[C@@H](Cc1ccccc1)C(=O)N[C@@H](CS)C(=O)N[C@H](C(=O)N[C@@H](CCC(N)=O)C(=O)N[C@H]1CCCCNC(=O)CCC(=O)NCCCC[C@@H](C(=O)N[C@H](C(=O)N[C@@H](CCCCN)C(=O)N[C@@H](Cc2c[nH]cn2)C(=O)N[C@@H](Cc2c[nH]c3ccccc23)C(=O)N2CCC[C@H]2C(=O)N[C@@H](Cc2c[nH]c3ccccc23)C(N)=O)C(C)C)NC(=O)[C@H](CCSC)NC(=O)[C@H](Cc2ccccc2)NC(=O)[C@H](CO)NC(=O)[C@H](CCCNC(=N)N)NC(=O)[C@H]([C@@H](C)CC)NC(=O)[C@H](CC(N)=O)NC1=O)[C@@H](C)CC [HC077] (H-ARCRGFLARVEYQRMVERREAIFCIQKNIRSFMKVKHWPW-NH2; linker 27-34 via Suc; N-terminus and C-terminus assumed) | 6.04 | 
2 | CC[C@H](C)[C@H](NC(=O)[C@H](C)N)C(=O)N[C@@H](Cc1ccccc1)C(=O)N[C@@H](CS)C(=O)N[C@H](C(=O)N[C@@H](CCC(N)=O)C(=O)N[C@@H](Cc1ccc(O)cc1)C(=O)N[C@@H](CC(N)=O)C(=O)N[C@H](C(=O)N[C@@H](CCCNC(=N)N)C(=O)N[C@@H](CO)C(=O)N[C@@H](Cc1ccccc1)C(=O)N[C@@H](CCSC)C(=O)N[C@@H](CC(N)=O)C(=O)N[C@H](C(=O)N[C@@H](CCCCN)C(=O)N[C@@H](Cc1c[nH]cn1)C(=O)N[C@@H](Cc1c[nH]c2ccccc12)C(=O)N1CCC[C@H]1C(=O)N[C@@H](Cc1c[nH]c2ccccc12)C(=O)N[C@@H](CCSC)C(=O)N[C@@H](CCCCN)C(N)=O)C(C)C)[C@@H](C)CC)[C@@H](C)CC [HC060] (H-AIFCIQYNIRSFMNVKHWPWMK-NH2) |  | 4.70
3 | CC[C@H](C)[C@@H]1NC(=O)[C@H](C)NC(=O)[C@@H](NC(=O)[C@H](CCCNC(=N)N)NC(=O)[C@H](CCCNC(=N)N)NC(=O)[C@H](CCC(=O)O)NC(=O)[C@@H]2CCCCNC(=O)CCC(=O)NCCCC[C@H](NC(=O)[C@H](C)NC(=O)[C@H](CC(C)C)NC(=O)[C@H](Cc3ccccc3)NC(=O)CNC(=O)[C@H](CCCNC(=N)N)NC(=O)[C@H](CS)NC(=O)[C@H](CCCNC(=N)N)NC(=O)[C@H](C)N)C(=O)N[C@@H](C(C)C)C(=O)N[C@@H](CCC(=O)O)C(=O)N[C@@H](Cc3ccc(O)cc3)C(=O)N[C@@H](CCC(N)=O)C(=O)N[C@@H](CCCNC(=N)N)C(=O)N[C@@H](CCSC)C(=O)N2)CCCCNC(=O)CCC(=O)NCCCC[C@@H](C(=O)N[C@@H](CC(N)=O)C(=O)N[C@H](C(=O)N[C@@H](CCCNC(=N)N)C(=O)N[C@@H](CO)C(=O)N[C@@H](Cc2ccccc2)C(=O)N[C@@H](CCSC)C(=O)N[C@@H](CC(N)=O)C(=O)N[C@H](C(=O)N[C@@H](CCCCN)C(=O)N[C@@H](Cc2c[nH]cn2)C(=O)N[C@@H](Cc2c[nH]c3ccccc23)C(=O)N2CCC[C@H]2C(=O)N[C@@H](Cc2c[nH]c3ccccc23)C(N)=O)C(C)C)[C@@H](C)CC)NC(=O)[C@H](CCC(N)=O)NC(=O)[C@H]([C@@H](C)CC)NC(=O)[C@H](CS)NC(=O)[C@H](Cc2ccccc2)NC1=O [HC159] (H-ARCRGFLAKVEYQRMKERRKAIFCIQKNIRSFMNVKHWPW-NH2; linker 9-16, 20-27 via Suc (inferred); N-terminus and C-terminus assumed) | 6.13 | 
4 | CC[C@H](C)[C@H](NC(=O)[C@H](C)NC(=O)[C@H](CCC(=O)O)NC(=O)[C@@H]1CCCCNC(=O)CCC(=O)NCCCC[C@@H]2NC(=O)[C@H](CCC(=O)O)NC(=O)[C@H](C(C)C)NC(=O)[C@@H](NC(=O)[C@H](C)NC(=O)[C@H](CC(C)C)NC(=O)[C@H](Cc3ccccc3)NC(=O)CNC(=O)[C@H](CCCNC(=N)N)NC(=O)[C@H](CS)NC(=O)[C@H](CCCNC(=N)N)NC(=O)[C@H](C)N)CCCCNC(=O)CCC(=O)NCCCC[C@H](NC(=O)[C@H](CCSC)NC(=O)[C@H](CCCNC(=N)N)NC(=O)[C@H](CCC(N)=O)NC2=O)C(=O)N[C@@H](CCC(=O)O)C(=O)N[C@@H](CCCNC(=N)N)C(=O)N1)C(=O)N[C@@H](Cc1ccccc1)C(=O)N[C@@H](CS)C(=O)N[C@H](C(=O)N[C@@H](CCC(N)=O)C(=O)N[C@@H](Cc1ccc(O)cc1)C(=O)N[C@@H](CC(N)=O)C(=O)N[C@H](C(=O)N[C@@H](CCCNC(=N)N)C(=O)N[C@@H](CO)C(=O)N[C@@H](Cc1ccccc1)C(=O)N[C@@H](CCSC)C(=O)N[C@@H](CC(N)=O)C(=O)N[C@H](C(=O)N[C@@H](CCCCN)C(=O)N[C@@H](Cc1c[nH]cn1)C(=O)N[C@@H](Cc1c[nH]c2ccccc12)C(=O)N1CCC[C@H]1C(=O)N[C@@H](Cc1c[nH]c2ccccc12)C(N)=O)C(C)C)[C@@H](C)CC)[C@@H](C)CC [HC157] (H-ARCRGFLAKVEKQRMKERKEAIFCIQYNIRSFMNVKHWPW-NH2; linker 9-16, 12-19 via Suc (inferred); N-terminus and C-terminus assumed) | 6.19 | 
5 | CC[C@H](C)[C@H](NC(=O)[C@H](C)NC(=O)[C@H](CCC(=O)O)NC(=O)[C@H](CCCNC(=N)N)NC(=O)[C@H](CCCNC(=N)N)NC(=O)[C@@H]1CCCCNC(=O)CCC(=O)NCCCC[C@@H]2NC(=O)[C@@H](NC(=O)[C@H](C)NC(=O)[C@H](CC(C)C)NC(=O)[C@H](Cc3ccccc3)NC(=O)CNC(=O)[C@H](CCCNC(=N)N)NC(=O)[C@H](CS)NC(=O)[C@H](CCCNC(=N)N)NC(=O)[C@H](C)N)CCCCNC(=O)CCC(=O)NCCCC[C@H](NC(=O)[C@H](CCSC)NC(=O)[C@H](CCCNC(=N)N)NC(=O)[C@H](CCC(N)=O)NC(=O)[C@H](Cc3ccc(O)cc3)NC(=O)[C@H](CCC(=O)O)NC2=O)C(=O)N1)C(=O)N[C@@H](Cc1ccccc1)C(=O)N[C@@H](CS)C(=O)N[C@H](C(=O)N[C@@H](CCC(N)=O)C(=O)N[C@@H](Cc1ccc(O)cc1)C(=O)N[C@@H](CC(N)=O)C(=O)N[C@H](C(=O)N[C@@H](CCCNC(=N)N)C(=O)N[C@@H](CO)C(=O)N[C@@H](Cc1ccccc1)C(=O)N[C@@H](CCSC)C(=O)N[C@@H](CC(N)=O)C(=O)N[C@H](C(=O)N[C@@H](CCCCN)C(=O)N[C@@H](Cc1c[nH]cn1)C(=O)N[C@@H](Cc1c[nH]c2ccccc12)C(=O)N1CCC[C@H]1C(=O)N[C@@H](Cc1c[nH]c2ccccc12)C(N)=O)C(C)C)[C@@H](C)CC)[C@@H](C)CC [HC156] (H-ARCRGFLAKKEYQRMKKRREAIFCIQYNIRSFMNVKHWPW-NH2; linker 9-16, 10-17 via Suc (inferred); N-terminus and C-terminus assumed) | 6.19 | 
6 | CC[C@H](C)[C@H](NC(=O)[C@H](C)NC(=O)[C@@H]1CCCCNC(=O)CCC(=O)NCCCC[C@@H]2NC(=O)[C@H](Cc3ccc(O)cc3)NC(=O)[C@H](CCC(=O)O)NC(=O)[C@H](C(C)C)NC(=O)[C@@H](NC(=O)[C@H](C)NC(=O)[C@H](CC(C)C)NC(=O)[C@H](Cc3ccccc3)NC(=O)CNC(=O)[C@H](CCCNC(=N)N)NC(=O)[C@H](CS)NC(=O)[C@H](CCCNC(=N)N)NC(=O)[C@H](C)N)CCCCNC(=O)CCC(=O)NCCCC[C@H](NC(=O)[C@H](CCSC)NC(=O)[C@H](CCCNC(=N)N)NC2=O)C(=O)N[C@@H](CCC(=O)O)C(=O)N[C@@H](CCCNC(=N)N)C(=O)N[C@@H](CCCNC(=N)N)C(=O)N1)C(=O)N[C@@H](Cc1ccccc1)C(=O)N[C@@H](CS)C(=O)N[C@H](C(=O)N[C@@H](CCC(N)=O)C(=O)N[C@@H](Cc1ccc(O)cc1)C(=O)N[C@@H](CC(N)=O)C(=O)N[C@H](C(=O)N[C@@H](CCCNC(=N)N)C(=O)N[C@@H](CO)C(=O)N[C@@H](Cc1ccccc1)C(=O)N[C@@H](CCSC)C(=O)N[C@@H](CC(N)=O)C(=O)N[C@H](C(=O)N[C@@H](CCCCN)C(=O)N[C@@H](Cc1c[nH]cn1)C(=O)N[C@@H](Cc1c[nH]c2ccccc12)C(=O)N1CCC[C@H]1C(=O)N[C@@H](Cc1c[nH]c2ccccc12)C(N)=O)C(C)C)[C@@H](C)CC)[C@@H](C)CC [HC158] (H-ARCRGFLAKVEYKRMKERRKAIFCIQYNIRSFMNVKHWPW-NH2; linker 9-16, 13-20 via Suc (inferred); N-terminus and C-terminus assumed) | 6.36 | 
